# Test results reported in US20260193317A1, “COMBINATION THERAPY WITH ACTRIIB RECEPTOR VARIANTS AND GLP-1 AGONISTS” (35PHARMA Inc., priority 2023, published 2026).
# T1: activin A (Homo sapiens, UniProt P08476)
# T1 sequence (P08476 311-426): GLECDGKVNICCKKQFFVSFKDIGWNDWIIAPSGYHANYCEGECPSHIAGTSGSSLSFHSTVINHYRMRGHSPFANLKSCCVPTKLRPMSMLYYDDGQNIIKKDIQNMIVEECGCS
# Columns and labels:
# [1] = system: diet-induced obese (DIO) mice; experiment: Body composition and metabolism in diet-induced obese (DIO) mice; type: in vivo
# Method: (§1) Experiments were performed to assess the effects of P1229 on body composition and metabolism in diet-induced obese (DIO) mice. DIO mice were purchased from Jackson Laboratories (#380050). Briefly, mice were fed a high-fat diet (HFD, 60% kcal from fat) from 6 weeks of age until 22 weeks of age (total of 16 weeks on the HFD). […] After 3 weeks of treatments, some animals were sacrificed and scanned by EchoMRI […] (FIGS. 11A-F), while others were sacrificed for tissue collection and RNA analysis. Animals were maintained on the HFD throughout the acclimatization and treatment periods. The murine version of bimagrumab used for these experiments comprises the heavy chain amino acid sequence of SEQ ID NO: 376 and the light chain sequence of SEQ ID NO: 377.
# TGFβ superfamily ligands = experiment: Neutralization profile across TGFβ superfamily ligands (HEK293 and HepG2 reporter assays, summary); type: cell-based, human
# [2] = system: follicle-stimulating hormone (FSH); experiment: FSH production in DIO mice; type: in vivo; conditions: 3 weeks of treatment
# Method: as §1
# Follicle-stimulating hormone (FSH) is a known biomarker of in vivo target engagement for activin receptor-based traps (See Attie et al. (2013). Muscle Nerve, 47: 416-423). To further validate in vivo target engagement for exemplary agents, FSH production was evaluated in DIO mice, as described above.
# activin A = target: T1, activin A; experiment: Small-scale activin A ELISA with CHO supernatants; conditions: 1 μg/mL protein, 30 ng/mL activin A, loss of signal = binding
# Procedure, shortened: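 ActRIIB-ECD-Fc fusions were expressed transiently in CHO cells and harvested after 7 days. Supernatant protein at 1 μg/mL final was premixed with human activin A at 30 ng/mL final and incubated 1 h at RT on an anti-activin A antibody plate. Loss of signal was expressed as % of wild-type ActRIIB-Fc.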
molecule,measurement,setting,value
"P1373: hActRIIB L33W, 19 aa linker, IgG1-DL Fc; SEQ ID 232 (protein) ETRECIYYNANWELERTNQSGLERCEGEQDKRWHCYASWRNSSGTIELVKKGCWLDDFNCYDRQECVATEENPQVYFCCCEGNFCNERFTHLPEAGGPEVTYEPPPTGGGGSGGGGSGGGGSGG[human IgG1 Fc and a few adjoining residues not spelt out]",hepatic Ahsg expression,[1],reduced Ahsg expression
same,hepatic Fgf21 expression,[1],reduced
same,hepatic Inhbe expression,[1],significantly decreased Inhbe expression
same,Mss51 gene expression in gastrocnemius muscle,[1]; 3 weeks,reduced Mss51 gene expression
same,Serpine1:Id1 expression ratio in soleus muscle,[1]; 3 weeks,lower Serpine1:Id1 expression ratio
same,ratio of lean mass to fat mass,[1]; 3 weeks,higher
same,fat mass and lean mass (EchoMRI),"[1]; 3 weeks s.c., P75, P1229 25 mg/kg twice weekly, P1373 5, 20, 50 mg/kg twice weekly, P1307 20 mg/kg weekly",fat loss with concomitant lean mass gain
same,"improved potency on activin A, GDF-8, and GDF-11 relative to P75",TGFβ superfamily ligands,~ 4 fold
same,FSH production,[2],significant decreases in FSH production
same,"activin A binding, ELISA signal relative to P75",activin A,potent activin A binding
